The campaign covered roughly 310,000 compounds. About 2,200 (0.71%) showed an effect of 50% or more. The effect is printed as a negative number. This is one part of the list.
Each compound was assayed against human ether-à-go-go-related gene (hERG) potassium channel (human, UniProt Q12809) (assay: primary screen, population patch clamp on CHO cells stably expressing hERG).
Chain of human ether-à-go-go-related gene (hERG) potassium channel (Q12809 whole entry, looked up): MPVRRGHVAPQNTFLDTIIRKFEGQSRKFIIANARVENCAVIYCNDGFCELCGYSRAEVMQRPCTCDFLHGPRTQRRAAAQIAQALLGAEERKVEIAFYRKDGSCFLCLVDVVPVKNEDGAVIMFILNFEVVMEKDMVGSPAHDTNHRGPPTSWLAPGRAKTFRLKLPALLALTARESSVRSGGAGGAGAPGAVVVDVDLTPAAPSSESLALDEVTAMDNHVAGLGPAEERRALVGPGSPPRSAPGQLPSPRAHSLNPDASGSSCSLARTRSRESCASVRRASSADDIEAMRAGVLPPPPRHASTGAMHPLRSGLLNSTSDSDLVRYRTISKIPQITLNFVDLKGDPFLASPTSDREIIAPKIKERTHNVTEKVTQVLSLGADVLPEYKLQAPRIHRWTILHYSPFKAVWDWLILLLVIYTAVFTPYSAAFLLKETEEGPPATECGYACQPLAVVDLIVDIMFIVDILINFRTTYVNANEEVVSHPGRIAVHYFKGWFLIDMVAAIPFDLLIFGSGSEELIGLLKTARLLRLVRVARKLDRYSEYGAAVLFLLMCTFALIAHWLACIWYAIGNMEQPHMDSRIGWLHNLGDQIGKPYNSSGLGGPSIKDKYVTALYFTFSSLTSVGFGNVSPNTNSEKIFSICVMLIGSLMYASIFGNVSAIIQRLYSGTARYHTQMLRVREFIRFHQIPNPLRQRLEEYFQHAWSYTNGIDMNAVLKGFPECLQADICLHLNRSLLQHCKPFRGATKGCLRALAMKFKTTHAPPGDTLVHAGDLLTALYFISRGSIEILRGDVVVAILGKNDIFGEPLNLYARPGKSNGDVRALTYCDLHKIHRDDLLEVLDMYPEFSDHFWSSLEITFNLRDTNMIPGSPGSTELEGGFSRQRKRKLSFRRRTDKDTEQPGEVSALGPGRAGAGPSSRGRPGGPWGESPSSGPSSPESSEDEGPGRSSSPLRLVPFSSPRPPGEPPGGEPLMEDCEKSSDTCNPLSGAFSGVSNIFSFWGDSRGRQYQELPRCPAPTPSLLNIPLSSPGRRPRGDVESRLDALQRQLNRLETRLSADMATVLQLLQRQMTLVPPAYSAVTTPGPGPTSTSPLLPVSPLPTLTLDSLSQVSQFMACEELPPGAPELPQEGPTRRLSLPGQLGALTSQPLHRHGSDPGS

Row | Compound | hERG current change (%, negative = inhibition) at 1uM [%]
1 | Cc1ccc(C(=O)CCC(=O)N2CCC(C(N)=O)CC2)s1 | 17.8
2 | COc1cccc(-c2nnc(SCC(=O)N(C(C)C)C(C)C)o2)c1 | 12.1
3 | O=C(Nc1ccc(Cl)cc1-c1nc2ccccc2s1)c1ccco1 | 15.4
4 | Cc1ccc(CNS(=O)(=O)CCNC(=O)c2ccccc2)cc1 | -11
5 | O=C(CSc1nc2c(sc3ccccc32)c(=O)n1CCCN1CCCC1)NCC1CCCO1 (centres unmarked) | -19.8
6 | Cc1nn(-c2ccccc2)c2c1C(c1ccco1)C(C#N)=C(N)O2 (centres unmarked) | 0.884
7 | COc1ccc(CCn2c(NN=C(C)C)nc3c2c(=O)[nH]c(=O)n3C)cc1 | 11
8 | CC(=O)c1ccccc1NS(=O)(=O)c1cccc2nonc12 | -32.6
9 | Nc1nc(-c2ccccc2)nc2sc3c(c12)CCCC3 | 7.59
10 | C/C(=N/NS(=O)(=O)c1ccc(C)cc1C)c1c[nH]c2ccccc12 | 13.9
11 | Cc1cc(=O)n(Cc2ccccc2)c(O)c1C#N | 14.6
12 | O=C(Cn1ccc(NC(=O)OCc2ccccc2)nc1=O)NCCCN1CCCC1=O | 7.66
13 | Cn1c(N)c(C(=O)c2ccccc2)c(=O)n(C)c1=O | 16.2
14 | Cc1ccc(CC(=O)NCC(c2ccco2)N(C)C)cc1C (centres unmarked) | 8.12
15 | COc1ccc(NS(=O)(=O)c2cccc(C(=O)NCC(c3ccccc3OC)N3CCCC3)c2)cc1 (centres unmarked) | -20.1
16 | Cc1nnc(NC(=O)c2cccc(Br)c2)s1 | 3.13
17 | Cn1c(-c2ccc3c(c2)OCO3)cc(=O)c2ccccc21 | 8.33
18 | CCOC(=O)c1cc2c(nc1NC(=S)NCc1ccccc1)CCCC2 | 14.6
19 | NC(=O)c1cc(S(=O)(=O)NCCCc2ccccc2)cs1 | 10.4
20 | NC(=O)c1c(NC(=O)c2cccs2)sc2c1CCCCCC2 | 10.7
21 | NC(=O)c1ccc(NC(=O)CC23CC4CC(CC(Br)(C4)C2)C3)cc1 | 16.7
22 | CN(C)C=Nc1ccc2nn(-c3ccccc3)nc2c1 | -15.3
23 | Cc1ccccc1OCCC(=O)OCC(=O)NCCNC(=O)COC(=O)CCOc1ccccc1C | 8.53

Row | Compound | hERG current change (%, negative = inhibition) at 1uM [%]
24 | COCCn1c(C)cc(C(=O)CSc2nnc(C3CC3)n2C2CC2)c1C | 11.5
25 | CC12CCC(C(=O)Nc3cccnc3)(CC1=O)C2(C)C (centres unmarked) | 13.3
26 | COc1ccc(OC)c(/C=N/NC(=O)c2cnccn2)c1 | 9.74
27 | COC(=O)N/N=C/c1cn(CC(C)COc2ccccc2)c2ccccc12 (centres unmarked) | 13
28 | CC(C)(C)c1ccc(C(=O)Nc2nonc2-c2nc3ccccc3[nH]2)cc1 | 11.8
29 | CC1(C)CC(=O)C2=C(C1)OC(N)=C(C#N)[C@@]21C(=O)N(CC(N)=O)c2ccccc21 | 16.7
30 | CCCN(CCC)CCNc1c(N2CCN(C(=O)OCC)CC2)c(=O)c1=O | 0.775
31 | CCOC(=O)CC1C(=O)NCCN1C(=O)c1cc2c(=O)n3ccccc3nc2s1 (centres unmarked) | 1.9
32 | Cc1ccc(OCc2n[nH]c(=S)n2-c2ccc(C)cc2)cc1 | 9.58
33 | COc1ccc2cc(C(=O)O)ccc2c1 | -9.25
34 | COc1ccc(C(=O)CSc2nnc3ccc(-c4ccccn4)nn23)cc1 | 14.2
35 | Cl.OCCNCc1ccc(-c2ccccc2)cc1 | -2.86
36 | Cc1nn(-c2ccccc2)c2nc(C(F)F)cc(C(F)F)c12 | 14.5
37 | CCOC(=O)c1ccc(NC(=S)NCc2ccccc2)cc1 | 15.7
38 | Cc1ccccc1C(=O)N1CCN(S(=O)(=O)c2cccs2)CC1 | 7.57
39 | Cc1ccccc1/[N+]([O-])=C/c1cccs1 | 8.35
40 | COc1ccc(S(=O)(=O)N2CCOCC2)cc1NC(=O)COC(=O)CCOc1ccc(C)cc1 | -8.47
41 | O=C(Nc1cc(S(=O)(=O)N2CCOCC2)ccc1O)c1ccc(NS(=O)(=O)c2ccc(Cl)s2)cc1 | 4.96
42 | CC1CCCCN1C(=O)COc1ccc2ccc(=O)oc2c1 (centres unmarked) | -4.5
43 | O=C(c1cccs1)N(Cc1cccc(Cl)c1)C1CCS(=O)(=O)C1 (centres unmarked) | -8.63
44 | CC(=O)c1ccc(OCCCC(=O)Nc2cccc(-c3nn[nH]n3)c2)cc1 | 11.3
45 | C=CCOc1c(OC)cc(Cl)cc1C1NC(=O)NC(C)=C1C(C)=O (centres unmarked) | 10.4
46 | COc1ccc(CC(=O)Nc2cccc(-c3ccc4nncn4n3)c2)cc1OC | 13.3

Row | Compound | hERG current change (%, negative = inhibition) at 1uM [%]
47 | Cc1ccc(-c2nc(=O)[nH]c3ccc(Br)cc23)cc1 | 11.1
48 | COc1ccc(C(C#N)c2cnccn2)cc1OC (centres unmarked) | 0.41
49 | Cc1ccc(N2C(=O)C3C(C2=O)C2C=CC3C23CC3)c([N+](=O)[O-])c1 (centres unmarked) | 0.25
50 | COCCNC(=O)CSc1ccccc1C(=O)NC1CCSc2ccccc21 (centres unmarked) | 12.8
51 | C=CCn1c(=O)c(C(=O)Nc2ccc(C)cn2)c(O)c2ccccc21 | 14.5
52 | Oc1ccc(C(=S)N2CCN(Cc3ccccc3)CC2)cc1 | 5.55
53 | O=C(NCCCCl)C1CC(=O)N(CCc2ccc(F)cc2)C1 (centres unmarked) | 14.6
54 | Nc1nc(N2CCOCC2)cc(=O)[nH]1 | 13.3
55 | Cc1nn(CC(O)COc2ccc3c(c2)CCC3)c(C)c1C (centres unmarked) | 3.89
56 | O=C(c1ccco1)N1CCN(c2ncnc3c2cnn3-c2ccccc2)CC1 | -45.6
57 | COc1ccc(-c2cc(C(=O)N3CCN(C(c4ccccc4)c4ccccc4)CC3)no2)cc1 | 15.1
58 | O=C(O)CCN1/C(=C/C=Nc2ccccc2)Oc2ccccc21 | 0.654
59 | CCOc1ncccc1C(=O)OCCN1C(=O)c2ccccc2C1=O | 4.04
60 | CCCc1ccc(OCc2ccc(C(=O)NCc3cccnc3)o2)c(OC)c1 | -9.64
61 | COCCCNC(=O)c1cn(C)c(=O)c2c1c1ccccc1n2C | 9.76
62 | COc1ccc(CC(=O)Nc2ccc(-c3noc(-c4ccc(Cl)cc4)n3)cc2)cc1 | 12.4
63 | COCCOc1cc(Nc2nnc(C(F)(F)F)s2)c(Cl)cc1Cl | 7.38
64 | CCCCCC#CCC#CCC#CCC#CCCCC(=O)O | 5.95
65 | CC(=O)Oc1cc2oc(=O)cc(C)c2cc1OC(C)=O | -0.132
66 | O=C(c1ccc(S(=O)(=O)N2CCCCC2)cc1)N1CCCC(C(F)(F)F)C1 (centres unmarked) | -1.69
67 | CCc1ccc[n+](-c2[nH]c(=O)sc2/C=N/N=C(\N)[O-])c1 | 1.25
68 | COc1ccc(OCc2nc(N)nc(Nc3ccccc3OC)n2)cc1 | 6.5
69 | CCc1c2ccccc2nn1-c1ccccc1C(=O)C(C)=O | 14.2

Row | Compound | hERG current change (%, negative = inhibition) at 1uM [%]
70 | Cc1ccc(N2C(=O)CC(C)CC2=O)cc1 | 13.8
71 | Nc1ccc(N2CCOCC2)c(Cl)c1 | 7.66
72 | Cc1cc(Cl)c(S(=O)(=O)Nc2ccc(Cl)cn2)cc1OCC(N)=O | 2.94
73 | COc1cc(/C=N/NC(=O)CNc2n[nH]c(=O)[nH]c2=O)ccc1O | 2.69
74 | O=C(Nc1cccc(Cl)c1)c1cc2c(=O)n3ccccc3nc2s1 | -2.14
75 | O=C(Nc1ccccc1)N1CCCC(c2nc(-c3ccc(F)cc3)no2)C1 (centres unmarked) | 7.45
76 | COc1ccc(NC(=O)CCCN(C)S(=O)(=O)c2ccc(C)cc2)cc1 | -4.72
77 | Cc1cccn2c(=O)c3cc(C(=O)N4COCC4(C)C)n(C)c3nc12 | 11.3
78 | Cn1nc(-c2ccc(Cl)cc2)c2cc(C(=O)N3CCN(C(=O)c4ccco4)CC3)sc21 | -5.27
79 | CCc1ccc(CNC(=O)c2ccc(OC3CCN(C(=O)COC)CC3)cc2)nc1 | 7.93
80 | Cc1ccccc1C1=NCC(=S)Nc2ccc(Cl)cc21 | 5.4
81 | COc1cc(OC)c(C(=O)/C=C/c2ccc(OCc3ccccc3)c(OC)c2)c(OC)c1 | 17.8
82 | COCCn1cc(C(=O)c2cc(Br)ccc2O)cc(C#N)c1=O | 10.5
83 | Br.COc1cccc(C(=O)CN2C3=NCCCN3c3ccccc32)c1 | -61.2
84 | Brc1ccc(Nc2nc3ccccc3n3nnnc23)cc1 | 20.4
85 | O=C(NNC(=O)c1ccccc1Cl)c1csc(N2CCOCC2)n1 | 15.2
86 | COc1cccc(C2C(C(C)=O)=C(O)C(=O)N2CCNCCO)c1 (centres unmarked) | 13
87 | CN(C)S(=O)(=O)c1cccc(NC(=O)C(c2ccccc2)c2ccccc2)c1 | 10.6
88 | O=C(c1cc(-c2ccccc2O)on1)N1CCOCC1 | 8.72
89 | NC(=NC(=O)c1ccccc1)N1N=CCC1c1ccccc1 (centres unmarked) | 10.4
90 | COC(=O)c1ccc(OCC2c3cc(OC)c(OC)cc3CCN2C(=O)c2ccco2)cc1 (centres unmarked) | 15.2
91 | COCC(C)n1c(SCC(=O)c2cc(C)n(C)c2C)nc2ccccc2c1=O (centres unmarked) | 7.52
92 | O=C(O)C1=CC2c3ccccc3C1c1ccccc12 | 11.7
